# Reference: publication PMC4336329 (PLoS ONE, 2015)
# The whole screen tested about 310,000 compounds, of which about 14,000 (4.5%) showed an effect of 50% or more. The effect is printed as a negative number. The list shows a part of the results.
# Target: human ether-à-go-go-related gene (hERG) potassium channel (human, UniProt Q12809)
# Assay: primary screen, population patch clamp on CHO cells stably expressing hERG
# 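Note: peak tail current of the secondary pulse compared with the same well before compound.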
# Sequence of human ether-à-go-go-related gene (hERG) potassium channel (Q12809 whole entry, looked up): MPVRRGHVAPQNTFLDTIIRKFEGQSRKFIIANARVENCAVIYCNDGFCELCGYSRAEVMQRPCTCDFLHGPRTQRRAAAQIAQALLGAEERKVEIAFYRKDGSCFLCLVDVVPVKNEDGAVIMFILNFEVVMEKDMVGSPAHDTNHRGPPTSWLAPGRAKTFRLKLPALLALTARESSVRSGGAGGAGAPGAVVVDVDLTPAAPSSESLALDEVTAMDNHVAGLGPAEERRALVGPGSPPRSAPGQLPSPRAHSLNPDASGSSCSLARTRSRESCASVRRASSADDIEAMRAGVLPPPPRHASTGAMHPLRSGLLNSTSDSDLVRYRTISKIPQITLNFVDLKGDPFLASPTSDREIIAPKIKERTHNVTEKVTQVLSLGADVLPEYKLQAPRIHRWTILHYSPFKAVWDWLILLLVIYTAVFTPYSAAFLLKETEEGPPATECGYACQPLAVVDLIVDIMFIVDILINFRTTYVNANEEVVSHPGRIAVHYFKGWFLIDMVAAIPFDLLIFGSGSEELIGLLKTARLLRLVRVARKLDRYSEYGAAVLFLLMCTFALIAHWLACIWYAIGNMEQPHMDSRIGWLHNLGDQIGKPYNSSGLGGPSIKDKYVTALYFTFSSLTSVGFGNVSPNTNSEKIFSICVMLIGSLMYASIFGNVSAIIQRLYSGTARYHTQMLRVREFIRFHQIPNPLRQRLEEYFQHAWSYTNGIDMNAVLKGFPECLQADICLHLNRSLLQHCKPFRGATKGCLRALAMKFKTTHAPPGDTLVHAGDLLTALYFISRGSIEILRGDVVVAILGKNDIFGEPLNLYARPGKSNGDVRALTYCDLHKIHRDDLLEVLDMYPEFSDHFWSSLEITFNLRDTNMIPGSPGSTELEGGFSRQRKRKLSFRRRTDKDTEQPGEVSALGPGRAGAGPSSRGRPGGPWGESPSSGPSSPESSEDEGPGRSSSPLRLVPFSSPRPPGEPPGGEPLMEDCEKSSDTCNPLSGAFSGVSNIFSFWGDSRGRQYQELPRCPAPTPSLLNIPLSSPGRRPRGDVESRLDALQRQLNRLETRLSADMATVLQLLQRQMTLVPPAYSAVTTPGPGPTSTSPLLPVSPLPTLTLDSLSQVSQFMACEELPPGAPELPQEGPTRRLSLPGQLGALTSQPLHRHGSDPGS
row,SMILES,"hERG current change (%, negative = inhibition) at 10uM [%]"
1,O=[N+]([O-])c1ccc(N=NNc2ccccc2)cc1,13.8
2,COc1ccc(CN2CCN(Cc3ccccc3F)CC2)cc1OC.O=C(O)C(=O)O,-22.6
3,CC1(C)Cc2c(c(-c3ccco3)[nH]c(=O)c2C#N)CO1,11.5
4,Cc1csc(C)[n+]1CC(=O)c1ccccc1.[Br-],19.7
5,Cc1cc(-c2ccccc2)nc2cc(C(N)=O)nn12,9.45
6,O=C(CNC(=O)c1ccccc1Cl)OC1CCOC1=O (centres unmarked),13.5
7,O=C(CSc1cn(CCNC(=O)c2ccc3ccccc3c2)c2ccccc12)NCc1ccco1,1.26
8,O=c1cc2c(nn1Cc1ccc(F)cc1)-c1ccccc1CC2,-61.3
9,CC(=O)N1CCc2cc(S(=O)(=O)CCC(=O)O)ccc21,7.4
10,Cc1nc(N)c(Br)c(C)c1Br,-9.31
11,CCOc1ccc(C(C)NC(=S)NCc2ccc(Cl)cc2)cc1 (centres unmarked),13.6
12,CN(CC(=O)Nc1ccc(S(N)(=O)=O)cc1)c1ccccc1,4.85
13,O=S(=O)(Cc1ccccc1)N1CCN(c2ncccn2)CC1,11.6
14,CN(C)c1ccc(CN(C)C2CCCCC2)cc1,2.72
15,Cc1ccc(C)c(C(C)NC(=S)NCc2ccc(F)cc2)c1 (centres unmarked),22
16,CCOC(=O)NC(=O)CSc1nnnn1-c1ccc(C)cc1,-3.17
17,O=C(NCCN1CCN(C(=O)NC2CCCCC2)CC1)NC1CCCCC1,9.87
18,FC(F)(F)c1cnc(Sc2ncn[nH]2)c(Cl)c1,4.22
19,CNC(=O)c1c(NC(=O)CCS(=O)(=O)c2ccc(F)cc2)sc(C)c1C,-8.22
20,Cc1c(CC(=O)N2C[C@H]3C[C@@H](C2)c2cccc(=O)n2C3)c(=O)oc2cc3occ(C(C)(C)C)c3cc12,-73.4
21,Cc1nnc(NC(=O)CSc2nccn2C)s1,11.8
22,CNC(=O)c1ccc(Nc2nnc(-c3ccc(O)cc3)c3ccccc23)cc1,-0.39
23,O=C(N/N=C1/CCCc2ccccc21)C(c1ccccc1)c1ccccc1,-6.6
24,CN(C(=O)CCn1c(=S)oc2ccccc21)c1ccc(F)cc1,-8.13
25,CCOc1ccc(-n2c(=O)cc(N3CCN(c4ccc(F)cc4)CC3)[nH]c2=O)cc1,9.15
26,CN(CC(=O)Nc1ccccc1Cl)C(=O)CSc1nncn1C,5.09
